{"source": "PubChem BioAssay AID1030", "about": "(National Center for Advancing Translational Sciences (NCATS), 2008)", "note": "Out of some 220,000 compounds screened, about 16,000 (7.3%) were called active. The shares of active, inactive and inconclusive entries below differ from those in the screen. The call rests on the fitted dose curve; in most records, active means well fitted inhibition curve with a large enough effect (not every such curve was filed as active); inconclusive means small, poorly fitted or top-dose-only effect, or another doubt; inactive means no such curve, though single readings can be large or run the other way. Potencies of inconclusive entries are left out as doubtful fits. Potency means the concentration at half of the fitted maximal effect; tags describe the fitted curve by direction and shape."}
{"biological_target": "Aldehyde dehydrogenase 1A1 (Homo sapiens) (UniProt P00352)", "sequence (P00352 whole entry, looked up)": "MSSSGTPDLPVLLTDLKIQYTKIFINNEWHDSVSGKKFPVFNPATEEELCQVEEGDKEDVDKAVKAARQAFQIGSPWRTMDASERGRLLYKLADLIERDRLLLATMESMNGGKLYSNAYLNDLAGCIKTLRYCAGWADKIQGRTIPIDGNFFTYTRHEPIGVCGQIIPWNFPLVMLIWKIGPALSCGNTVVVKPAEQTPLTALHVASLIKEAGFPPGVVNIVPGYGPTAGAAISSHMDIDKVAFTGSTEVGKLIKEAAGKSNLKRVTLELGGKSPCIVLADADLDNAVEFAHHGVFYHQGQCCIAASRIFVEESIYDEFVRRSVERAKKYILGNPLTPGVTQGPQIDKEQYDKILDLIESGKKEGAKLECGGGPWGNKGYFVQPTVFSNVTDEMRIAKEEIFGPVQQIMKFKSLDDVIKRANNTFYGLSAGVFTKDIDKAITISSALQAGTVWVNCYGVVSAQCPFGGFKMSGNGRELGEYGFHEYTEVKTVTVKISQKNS", "assay": "qHTS Assay for Inhibitors of Aldehyde Dehydrogenase 1 (ALDH1A1)", "settings": "Purified ALDH1A1, NADH fluorescence, propionaldehyde substrate; series mostly up to 75.3 µM"}
{"smiles": "CCOC(=O)C1(O)CSc2nc3sc(C(=O)O)c(C)c3c(=O)n21", "note": "(stereo unspecified)", "Potency": "inconclusive [inhibitor, single point]"}
{"smiles": "CCCn1c(=O)c2[nH]c(-c3ccc(S(=O)(=O)O)cc3)nc2n(CCC)c1=O", "Potency": "inconclusive [inhibitor, partial curve]"}
{"smiles": "CC(=O)NS(=O)(=O)c1ccc(NC(=O)/C=C/c2ccco2)cc1", "Potency": "inconclusive [inhibitor, single point]"}
{"smiles": "CCN1C(c2ccccc2)=C(c2ccccc2)S/C1=C/C=C1\\SC(=S)N(C)C1=O", "Potency": "inconclusive [inhibitor, partial curve, poor fit]"}
{"smiles": "CC(=O)c1ccc(NC(=S)NC(=O)CC(C)C)cc1", "Potency": "inactive"}
{"smiles": "COc1ccccc1/C=C/C(=O)OCC(=O)NNC(=O)c1ccccc1", "Potency": "inconclusive [inhibitor, single point]"}
{"smiles": "Cc1nn(C)cc1CNCc1c(C(=O)N2CCCCC2)nc2c(C)cccn12", "Potency": "inconclusive [inhibitor, single point]"}
{"smiles": "COCCn1c(=NC(C)=O)sc2cc([N+](=O)[O-])ccc21", "Potency": "inactive"}
{"smiles": "COc1ccccc1CC(=O)NCc1ccc2c(c1)OCO2", "Potency": "inconclusive [inhibitor, single point]"}
{"smiles": "COC(=O)c1ccc(C(=O)OC)c(NC(=S)N2CCN(C)CC2)c1", "Potency": "inconclusive [inhibitor, partial curve]"}
{"smiles": "CN1C(=O)/C(=C/C=C2\\SCCN2C)OC1=S", "Potency": "inconclusive [inhibitor, partial curve]"}
{"smiles": "COc1ccc(C)cc1NC(=O)CNC(C)C(=O)Nc1cc(Cl)ccc1Cl", "note": "(stereo unspecified)", "Potency": "inconclusive [inhibitor, single point]"}
{"smiles": "COc1ccc(CCNc2oc(-c3cccc4ccccc34)nc2P(=O)(OC)OC)cc1OC", "Potency": "inconclusive [inhibitor, partial curve]"}
{"smiles": "CC(C)Oc1ccccc1C1Nc2ccccc2C(=O)N1c1ccc2c(c1)OCCO2", "note": "(stereo unspecified)", "Potency": "inconclusive [inhibitor, single point]"}
{"smiles": "Cc1oc(-c2cccs2)nc1CS(=O)CC(=O)NC1CCCCCC1", "note": "(stereo unspecified)", "Potency": "inconclusive [inhibitor, single point]"}
{"smiles": "COc1ccc(CN2CCn3ncc(C(=O)Nc4cccc(C)c4)c3C2=O)cc1", "Potency": "inconclusive [inhibitor, single point]"}
{"smiles": "S=C(Nc1cccc(Cl)c1Cl)Nn1cnnc1", "Potency": "active: 2.82 µM"}
{"smiles": "CCOC(=O)c1cc2c(ccn2C)n1CC(=O)N1C(C)CCCC1C", "note": "(stereo unspecified)", "Potency": "inconclusive [inhibitor, partial curve]"}
{"smiles": "CC(C)n1c(/N=C/c2c[nH]c3ccccc23)nc2ccccc21", "Potency": "inconclusive [inhibitor, single point]"}
{"smiles": "Cc1ccc(S(=O)(=O)N2CCCC(C(=O)NNCC(=O)Nc3cc(F)ccc3F)C2)cc1", "note": "(stereo unspecified)", "Potency": "inconclusive [inhibitor, partial curve, poor fit]"}
{"smiles": "CNC(=O)COC(=O)c1cc2c(C)nn(-c3ccc(F)cc3)c2s1", "Potency": "inconclusive [inhibitor, single point]"}
{"smiles": "O=C(NC12CC3CC(CC(C3)C1)C2)N(Cc1ccccc1)Cc1ccncc1", "Potency": "inconclusive [inhibitor, single point]"}
{"smiles": "COC(=O)c1cc(NC(=O)Cc2ccc(OC)cc2)cc(C(=O)OC)c1", "Potency": "active: 0.891 µM"}
{"smiles": "O=C(N/N=C1/C[C@@H](O)[C@@H](O)[C@@H]2[C@H]3C(=O)N(c4ccc(F)cc4F)C(=O)[C@@H]3CC[C@@H]12)OCc1ccccc1", "Potency": "inconclusive [inhibitor, single point]"}
{"smiles": "O=C(NCC1CCCN(C(=O)c2cccnc2)C1)c1ccc(-c2ccccc2)cc1", "note": "(stereo unspecified)", "Potency": "inconclusive [inhibitor, single point]"}
{"smiles": "Cc1cc(Cl)ccc1OCC(=O)n1cc(C(=O)c2cc(Cl)ccc2O)cn1", "Potency": "inconclusive [inhibitor, single point]"}
{"smiles": "O=C(Nc1ccc2oc(=O)ccc2c1)c1cccnc1Cl", "Potency": "inconclusive [inhibitor, partial curve]"}
{"smiles": "CCc1ccc2c(COC(=O)c3n[nH]c4ccccc34)cc(=O)oc2c1", "Potency": "inconclusive [inhibitor, partial curve]"}
{"smiles": "[O-]c1c[n+](-c2ccc(-[n+]3cc([O-])on3)cc2)no1", "Potency": "inconclusive [inhibitor, single point]"}
{"smiles": "Cc1cc(C)cc(CSCC(=O)N/N=C/c2ccc(OCC(=O)NCc3ccco3)cc2)c1", "Potency": "inactive"}
{"smiles": "c1ccc(-n2ncc3c(N4CCCCC4)ncnc32)cc1", "Potency": "inconclusive [inhibitor, single point]"}
{"smiles": "CC(C)=NNc1cc([N+](=O)[O-])cc2c1C(=O)N(C)S2=O", "note": "(stereo unspecified)", "Potency": "inactive"}
{"smiles": "CCCCn1nnnc1SCC(=O)Nc1ccc2c(c1)OCO2", "Potency": "inconclusive [inhibitor, partial curve]"}
{"smiles": "O=C(NCCCn1ccnc1)C(=O)NCC1OCCCN1S(=O)(=O)c1ccc(Cl)cc1", "note": "(stereo unspecified)", "Potency": "inconclusive [inhibitor, single point]"}
{"smiles": "COc1ccc(/C=N\\NS(=O)(=O)c2ccc(Cl)cc2)cc1COc1ccccc1[N+](=O)[O-]", "Potency": "inconclusive [inhibitor, single point]"}
{"smiles": "CCOC(=O)N1CCN=C1SCc1ccc(Cl)c(Cl)c1", "Potency": "inactive"}
{"smiles": "Cc1cccc(-n2c(SCC(=O)NCc3ccc4c(c3)OCO4)nc3ccccc3c2=O)c1", "Potency": "inconclusive [inhibitor, partial curve]"}
{"smiles": "COc1cc(C2NC(=O)NC(c3ccccc3)=C2C(C)=O)cc([N+](=O)[O-])c1O", "note": "(stereo unspecified)", "Potency": "inconclusive [inhibitor, partial curve, poor fit]"}
{"smiles": "CCOc1ccccc1NC(=O)C1CCCCN1S(=O)(=O)c1ccc(F)cc1", "note": "(stereo unspecified)", "Potency": "inconclusive [inhibitor, single point]"}
{"smiles": "Cc1ccc(N2CC(C(=O)Nc3ccc(S(=O)(=O)Nc4nccs4)cc3)CC2=O)cc1", "note": "(stereo unspecified)", "Potency": "active: 20 µM"}
{"smiles": "CCCn1c(C)cs/c1=N\\C(=S)Nc1ccccc1", "Potency": "inconclusive [inhibitor, single point]"}
